The campaign covered roughly 120,000 compounds. About 5,300 (4.4%) were called active. Inconclusive means that the source gave no clear call. Such entries were picked first, then a sample of the others. The call rests on the fitted dose curve; in most records, active means well fitted inhibition curve with a large enough effect; inconclusive means small, poorly fitted or top-dose-only effect; inactive means no such curve, though single readings can be large or run the other way. Where the call is inconclusive, the potency comes from a doubtful curve fit.
test: qHTS Primary assay for Inhibitors of Plasmodium falciparum Dd2 growth in vitro; further: nearly all actives have a fitted effect of over 65% in size;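 on activity, negative = inhibition: plate controls were DMSO vehicle for no effect and reference drug for full effect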; settings: P. falciparum Dd2 growth, SYBR Green, 72 h; activity, negative = inhibition: at 28.9 µM (top of the series) unless noted; series mostly up to 28.9 µM
In short: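 Infected erythrocytes (Dd2, 0.3% parasitemia, 2.5% hematocrit final) are added to compound in RPMI-1640/Albumax II medium, grown 72 h at 37C in low oxygen, then lysed with saponin/Triton-X containing SYBR Green and read by fluorescence.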
Potency means the concentration at half of the fitted maximal effect; tags describe the fitted curve by direction and shape.

| SMILES | Potency | activity, negative = inhibition | outcome |
| --- | --- | --- | --- |
| O=C(Nc1ccc(Oc2ccccc2)cc1)C1CCN(S(=O)(=O)c2ccccc2)CC1 | inconclusive: 17.8 µM [inhibitor, single point] | – | – |
| CS(=O)(=O)N(C1CC1)C1CCOC2(CCN(C(=O)c3cc(F)ccc3F)CC2)C1 (stereo not drawn) | – | inactive: -24% | – |
| O=C(Nc1cccc(C(=O)N2CCN(c3ccc(F)cc3)CC2)c1)c1nsc2ccccc12 | inconclusive: 17.8 µM [inhibitor, single point] | – | – |
| O=C1Nc2ccccc2CC12CCCN(Cc1ccccc1)C2 (stereo not drawn) | inconclusive: 20 µM [inhibitor, single point] | – | – |
| Cc1oc2ccc(O)c(CN3CCN(Cc4ccccc4)CC3)c2c1C(=O)Nc1cccc(Cl)c1C | active: 0.562 µM | – | – |
| CCn1ncc(CN2CCCN(Cc3ccncc3)C(c3ccccc3)CC(=O)NCC2)c1C (stereo not drawn) | – | inactive: -4.23% | – |
| COC[C@H]1CCCN1c1nc(CCN)nc2sc(C)c(C)c12 | inconclusive: 8.91 µM [inhibitor, partial curve, poor fit] | – | – |
| Cc1ccsc1CN1CCCCCCNC(=O)CC1 | inconclusive: 17.8 µM [inhibitor, single point] | – | – |
| CCOC(=O)c1c(NC(=O)c2ccc(S(=O)(=O)N(C)C)cc2)sc2c1CCN(C)C2 | – | – | inactive |
| CCOc1cccc(CN2CC(Oc3ccccc3C(=O)NC3CC3)C2)c1 | inconclusive: 10 µM [inhibitor, partial curve] | – | – |
| O=C(NCCCc1ccccn1)c1ccc2nc(-c3ccc(F)cc3)cn2c1 | inconclusive: 12.6 µM [inhibitor, single point] | – | – |
| Cc1ccc(-n2ncc(C(=O)N3CCN(C4CCCCC4)CC3)c2C2CCN(C(=O)OC(C)(C)C)CC2)cc1 | inconclusive: 3.55 µM [inhibitor, full curve, poor fit] | – | – |
| CCc1ccc(Sc2cc(C(=O)NCCCN3CCCC(C)C3)c3ccccc3n2)cc1 (stereo not drawn) | inconclusive: 14.1 µM [inhibitor, single point] | – | – |
| Cc1noc(C)c1-c1cc2cc(CNC(C)C)oc2c(NC2CCN(C)CC2)n1 | inconclusive: 3.98 µM [inhibitor, partial curve, poor fit] | – | – |
| Cc1ccccc1CCNCc1c(C(=O)O)c(C)n(Cc2c(F)cccc2Cl)c1C | inconclusive: 10 µM [inhibitor, single point] | – | – |
| CCCCN(C)C(=O)CCC1CCN(c2cc(NC3CC3)ncn2)CC1 | inconclusive: 10 µM [inhibitor, single point] | – | – |
| COCCNC(=O)[C@@H]1C[C@H](Oc2cccnc2)CN1C(=O)C1(C)CCCCC1 | – | inactive: -4.05% | – |
| CCCCc1nn(CC(=O)NCc2c(F)ccc(OC)c2F)c(=O)n1CC | – | inactive: 14.2% | – |
| COc1ccccc1/C=C/c1nc(C#N)c(NC(C)c2ccccc2)o1 (stereo not drawn) | active: 4.47 µM | – | – |
| COc1ccccc1-c1nc(N2CCOCC2)cc2c1CN(Cc1cnn(C)c1)C2=O | inconclusive: 12.6 µM [inhibitor, partial curve] | – | – |
| O=C(Nc1ccc2c(N3CCCCC3)ncnc2c1)c1ccsc1 | active: 7.08 µM | – | – |
| CC(C)(C)CC(=O)N1CC[C@@H](CC(=O)O)[C@@H](CCN2CCOCC2)C1 | – | inactive: 3.52% [at 44.1 µM] | – |
| COc1cccc(N2CCN(c3ncc4c(n3)CCN(Cc3ccc(Br)cc3)C4)CC2)c1 | inconclusive: 11.2 µM [inhibitor, single point] | – | – |

| SMILES | Potency | activity, negative = inhibition | outcome |
| --- | --- | --- | --- |
| C[C@@H](NCC1CCCCC1)c1onc(-c2ccc(F)cc2)c1C(=O)O | – | inactive: -22.3% [at 44.1 µM] | – |
| O=C1Nc2ccccc2CC12CCN(Cc1ccccn1)C2 (stereo not drawn) | – | inactive: -1.81% [at 44.1 µM] | – |
| Cc1ccccc1C(=O)Nc1sc2c(c1C(=O)N1CCC(C)CC1)CCCC2 | inconclusive: 10 µM [inhibitor, partial curve] | – | – |
| CSCC(=O)N[C@H]1CN(CCCn2nc(C)cc2C)C[C@@H]1C1CC1 | – | inactive: -14.8% | – |
| COc1cc(C)c2c(c1C)C[C@H](C(C)C(=O)NCc1cccs1)CC2 (stereo partly drawn) | active: 11.2 µM | – | – |
| CCNC(=O)c1ccc(N2CC3CC(C2)[C@H]2CCCC(=O)N2C3)nc1 (stereo partly drawn) | – | inactive: -16.7% | – |
| CCN(CCCNC(=O)c1cc2c(=O)[nH]c3ccc(C)cc3c2s1)Cc1ccccc1 | active: 7.94 µM | – | – |
| O=C(c1cccs1)N1CCC(N2CC(OCC3CC3)C23CCCCC3)CC1 (stereo not drawn) | inconclusive: 0.708 µM [inhibitor, full curve, poor fit] | – | – |
| Cc1cccc(NC(=O)c2cc(-c3ccc[nH]3)n[nH]2)c1 | – | inactive: -8.55% | – |
| O=C(NC1CCC(O)CC1)c1ccc(-c2ncc3cnc(-c4ccccc4)cn23)cc1 (stereo not drawn) | – | inactive: -11.8% [at 44.1 µM] | – |
| COc1ccc(Cl)cc1NC(=O)c1nc(S(C)(=O)=O)ncc1N(Cc1ccc(C)cc1)Cc1ccco1 | inconclusive: 3.55 µM [inhibitor, partial curve] | – | – |
| Cc1cccc(CNC(=O)c2ccc(Cn3c(SCc4ccccc4)nc4cccnc43)cc2)c1 | inconclusive: 10 µM [inhibitor, partial curve] | – | – |
| CCc1ccc2oc(C(=O)Nc3nc(-c4ccccc4)ns3)c(C)c2c1 | – | inactive: 31.3% | – |
| Cc1ccc(OC(C)C(=O)NCC2(N3CCOCC3)CCCCC2)cc1C (stereo not drawn) | inconclusive: 20 µM [inhibitor, single point] | – | – |
| COc1ccccc1CNC(=O)CCC1N=C2c3ccccc3N=C(SCC(=O)NCCc3ccccc3)N2C1=O (stereo not drawn) | inconclusive: 4.47 µM [inhibitor, partial curve, poor fit] | – | – |
| Cc1ccc(CNC(=O)c2ccc3c(c2)n(Cc2ccccc2)c(=O)c2ccnn23)o1 | inconclusive: 7.08 µM [inhibitor, partial curve, poor fit] | – | – |
| COc1ccc(CNC(=O)C(=O)NCC(c2cccnc2)N2CCN(c3ccccc3F)CC2)cc1 (stereo not drawn) | inconclusive: 17.8 µM [inhibitor, single point] | – | – |
| COCCN1C(=O)CO[C@H]2CN(Cc3cnc4ccccc4c3)C[C@H]21 | – | inactive: -12.6% [at 44.1 µM] | – |
| Cc1ccc(Nc2cc(-c3ccccc3)nc(C)n2)cc1 | – | inconclusive: -142% [inhibitor] [at 0.594 µM] | – |
| Cc1ccc(C(=O)NCCn2cccc2-c2nc(-c3ccccc3)no2)cc1 | – | inactive: -4.89% | – |
| Cn1nc(C(=O)N2CCC(OCCOc3ccccc3)CC2)c2ccccc21 | inconclusive: 6.31 µM [inhibitor, partial curve, poor fit] | – | – |
| COCC(=O)N[C@@H]1CN(S(=O)(=O)Cc2ccccc2)CC[C@@H]1c1nc(C)no1 | – | inactive: -11.8% [at 5.79 µM] | – |
| O=C1NC2(Cc3ccccc31)CN(CC1CC1)C2 | – | inconclusive: -63.4% [inhibitor] [at 44.1 µM] | – |

| SMILES | Potency | activity, negative = inhibition | outcome |
| --- | --- | --- | --- |
| O=C(c1ccc2nc(-c3ccc(F)cc3)cn2c1)N1C[C@@H]2CCCN[C@@H]2C1 | inconclusive: 11.2 µM [inhibitor, single point] | – | – |
| Cc1noc2c(-c3ccc4c(ccn4C)c3)cc(-c3cccnc3)nc12 | inconclusive: 6.31 µM [inhibitor, full curve, poor fit] | – | – |
| Cc1noc(C(C)N(C)C(=O)c2cc(COc3ccccc3F)[nH]n2)n1 (stereo not drawn) | inconclusive: 0.126 µM [inhibitor, full curve, poor fit] | – | – |
| CCc1nc(-c2c(-c3ccccc3)ncn2CCc2ccncc2)c(C)[nH]1 | inconclusive: 12.6 µM [inhibitor, single point] | – | – |
| O=C(CCNc1c(-c2cccc(F)c2)nc2cnccn12)NCc1ccc(Cl)cc1 | – | inactive: -3.44% | – |
| O=C(c1ccc(Cn2ccnc2)o1)N1CCC2(CC1)NCCc1c2[nH]c2ccccc12 | active: 12.6 µM | – | – |
| O=C(NC1C[C@H]2CC[C@@H](C1)N2C(=O)C1CCC1)c1ccncc1 (stereo partly drawn) | – | inactive: 2.86% | – |
| O=C(Nc1ccc(F)c(F)c1)C1CCN(C(=O)c2ncn3c2COC(c2ccccc2)C3)CC1 (stereo not drawn) | – | inactive: -15.9% | – |
| Cn1ncc2c(C(=O)NCC3CC3)cc(-c3cccnc3)nc21 | active: 12.6 µM | – | – |
| COc1ccc(OC)c(NC(=O)CCc2c(C)nc3c(-c4ccccc4)c(C)nn3c2C)c1 | – | inactive: -22.4% | – |
| CCCN(CCC)CCNC(=O)c1cc(Sc2ccc(Cl)cc2)nc2ccccc12 | inconclusive: 11.2 µM [inhibitor, single point] | – | – |
| CCSC1=NC2(CCN(C(=O)NC3CCCCC3)CC2)N=C1c1ccc(C)c(C)c1 | inconclusive: 17.8 µM [inhibitor, single point] | – | – |
| Cc1ccc2c(=O)cc(C(=O)Nc3ccc(S(=O)(=O)Nc4onc(C)c4C)cc3)oc2c1 | inconclusive: 4.47 µM [inhibitor, partial curve] | – | – |
| CCS(=O)(=O)N1CCc2nc(N(C)Cc3cccnc3)[nH]c(=O)c2CC1 | – | inactive: 7.74% [at 5.79 µM] | – |
| CN1CCOc2c(C(=O)NCCN3CCNC3=O)cc(-c3ccc(O)c(F)c3)cc21 | – | – | inactive [at 44.1 µM] |
| COc1ccc(CN2CCN(c3ncnc4c3CCC4)CC2CCO)c(C)c1C (stereo not drawn) | inconclusive: 3.98 µM [inhibitor, single point] | – | – |
| Cc1noc2c(NCCCn3ccnc3)cc(-c3ccccc3)nc12 | inconclusive: 20 µM [inhibitor, single point] | – | – |
| c1cnn(-c2ccc(-c3nc(C4CCOC4)no3)cc2)c1 (stereo not drawn) | inconclusive: 8.91 µM [inhibitor, partial curve, poor fit] | – | – |
| COC[C@@H]1CN(C(=O)Cc2cccc(OC)c2)C[C@H]1c1nc(C)no1 | – | inactive: 13.6% | – |
| Fc1ccc(CNC[C@H]2Cn3c(-c4ccc(Cl)cc4)cnc3CO2)cc1 | inconclusive: 2.82 µM [inhibitor, partial curve, poor fit] | – | – |
| COCCCn1c(C)cnc1CC1CCN(S(=O)(=O)c2cccc(F)c2)CC1 | inconclusive: 5.01 µM [inhibitor, partial curve, poor fit] | – | – |
| O=C(Nc1cnc(-c2ccc(Cl)cc2)nc1)c1ccc(F)c(F)c1 | inconclusive: 3.98 µM [inhibitor, partial curve, poor fit] | – | – |
